Results as given in PubChem BioAssay AID504333 (National Center for Advancing Translational Sciences (NCATS), 2011).
“And” between values parts separate entries of the source, which are not always exact repeats. Equal values may be shown once. About 16,000 (4.4%) of roughly 360,000 compounds were called active. Inconclusive means that the source gave no clear call. Such entries were picked first, then a sample of the others. Calls come from the whole dose curve; as a rule, active = well fitted inhibition curve with a large enough effect; inconclusive = small, poorly fitted or top-dose-only effect; inactive = no such curve, though single readings can be large or run the other way. A potency beside an inconclusive call is a rough fit, not a confirmed value.

The molecules below were run against Bromodomain adjacent to zinc finger domain protein 2B (Homo sapiens) (UniProt Q9UIF8) (assay: qHTS Assay for Inhibitors of BAZ2B). Conditions: AlphaScreen BAZ2B-H3K14Ac peptide displacement; activity change, negative = inhibition: at 114 µM (top of the series).
Summary of the method: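 Inhibition is scored as reduced AlphaScreen emission. The BAZ2B/b-H3(5-23)K14Ac complex (50 nM each) in PBS pH 7.4, 0.01% Tween-20 meets compound (up to 110 uM) for 30 min at RT before bead addition.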
% is set by controls: 0 for no effect and ±100 for the full control effect; potency is the fitted concentration of half-maximal effect; tags give direction and shape of the fitted curve.
Note: nearly all actives have a fitted effect of over 60% in size.

Chain of UniProt Q9UIF8 (Q9UIF8 whole entry, looked up, the tested form may be a part): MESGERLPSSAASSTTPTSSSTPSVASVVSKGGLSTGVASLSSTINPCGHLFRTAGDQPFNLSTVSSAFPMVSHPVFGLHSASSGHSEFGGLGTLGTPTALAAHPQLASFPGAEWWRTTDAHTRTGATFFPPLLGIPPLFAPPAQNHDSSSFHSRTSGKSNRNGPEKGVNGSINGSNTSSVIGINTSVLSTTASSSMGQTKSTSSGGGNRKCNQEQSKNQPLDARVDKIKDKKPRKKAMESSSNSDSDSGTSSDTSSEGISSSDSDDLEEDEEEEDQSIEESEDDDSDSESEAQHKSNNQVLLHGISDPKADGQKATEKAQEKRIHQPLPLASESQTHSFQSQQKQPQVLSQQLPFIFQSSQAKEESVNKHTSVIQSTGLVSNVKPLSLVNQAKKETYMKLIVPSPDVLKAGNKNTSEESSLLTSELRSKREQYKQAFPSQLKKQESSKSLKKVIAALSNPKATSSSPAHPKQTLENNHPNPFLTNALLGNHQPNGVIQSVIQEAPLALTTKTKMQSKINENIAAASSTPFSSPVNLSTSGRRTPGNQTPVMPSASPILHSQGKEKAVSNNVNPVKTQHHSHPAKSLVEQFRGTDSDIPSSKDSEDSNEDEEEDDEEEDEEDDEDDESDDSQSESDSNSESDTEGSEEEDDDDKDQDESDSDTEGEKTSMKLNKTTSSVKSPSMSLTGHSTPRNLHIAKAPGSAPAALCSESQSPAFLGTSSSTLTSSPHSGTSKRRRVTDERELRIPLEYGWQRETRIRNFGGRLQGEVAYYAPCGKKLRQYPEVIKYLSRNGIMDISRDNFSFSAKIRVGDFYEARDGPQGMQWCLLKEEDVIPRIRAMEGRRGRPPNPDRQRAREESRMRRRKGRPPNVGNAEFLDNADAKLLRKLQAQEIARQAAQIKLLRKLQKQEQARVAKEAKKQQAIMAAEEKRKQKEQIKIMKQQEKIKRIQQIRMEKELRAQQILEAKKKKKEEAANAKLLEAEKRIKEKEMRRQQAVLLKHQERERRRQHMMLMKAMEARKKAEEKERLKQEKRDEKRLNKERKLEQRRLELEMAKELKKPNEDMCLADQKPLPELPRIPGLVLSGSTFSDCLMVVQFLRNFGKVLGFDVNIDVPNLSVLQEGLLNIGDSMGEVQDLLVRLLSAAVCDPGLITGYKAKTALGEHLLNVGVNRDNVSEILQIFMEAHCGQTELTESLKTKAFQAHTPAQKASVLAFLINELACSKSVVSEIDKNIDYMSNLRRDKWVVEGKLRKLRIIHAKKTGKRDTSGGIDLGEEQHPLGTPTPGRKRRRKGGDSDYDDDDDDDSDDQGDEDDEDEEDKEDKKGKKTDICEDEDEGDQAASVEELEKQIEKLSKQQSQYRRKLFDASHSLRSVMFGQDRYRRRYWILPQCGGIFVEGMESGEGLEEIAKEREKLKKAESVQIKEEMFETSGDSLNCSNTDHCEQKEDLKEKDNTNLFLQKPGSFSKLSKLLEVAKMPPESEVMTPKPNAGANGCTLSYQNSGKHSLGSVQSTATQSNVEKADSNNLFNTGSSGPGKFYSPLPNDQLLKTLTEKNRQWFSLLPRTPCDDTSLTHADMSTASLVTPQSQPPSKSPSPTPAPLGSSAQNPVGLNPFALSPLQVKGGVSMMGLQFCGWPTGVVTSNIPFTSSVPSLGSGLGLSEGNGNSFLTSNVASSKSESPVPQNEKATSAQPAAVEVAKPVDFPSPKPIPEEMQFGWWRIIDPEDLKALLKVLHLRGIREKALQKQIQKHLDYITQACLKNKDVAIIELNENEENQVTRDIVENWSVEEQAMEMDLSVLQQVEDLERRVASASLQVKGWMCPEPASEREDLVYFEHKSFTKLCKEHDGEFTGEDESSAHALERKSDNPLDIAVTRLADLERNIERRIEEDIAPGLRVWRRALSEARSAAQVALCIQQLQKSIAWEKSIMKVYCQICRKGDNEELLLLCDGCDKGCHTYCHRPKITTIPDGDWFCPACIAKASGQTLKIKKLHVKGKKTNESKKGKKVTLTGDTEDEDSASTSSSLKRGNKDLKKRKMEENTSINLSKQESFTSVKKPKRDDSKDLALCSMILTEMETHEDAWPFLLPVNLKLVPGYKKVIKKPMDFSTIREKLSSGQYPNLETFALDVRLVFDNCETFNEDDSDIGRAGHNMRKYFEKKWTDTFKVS

SMILES	activity change, negative = inhibition	Potency
COc1cc(/C=C(\NC(C)=O)C(=O)Nc2cccc(O)c2)ccc1OC(C)=O	inactive: 4.21%	–
COc1ccc(-n2c(C)cc(C(=O)CSc3ccc(NC(C)=O)cc3)c2C)cc1	–	active: 44.7 µM
COC(=O)CCN1CCc2cc(N=Nc3ccc([N+](=O)[O-])cc3)ccc21	–	inconclusive: 11.2 µM [inhibitor, partial curve, poor fit]
Cc1ccc(N2CCN(C(=S)Nc3ccc(Cl)cc3)CC2)cc1	–	inconclusive: 89.1 µM [inhibitor, single point]
CCNc1nc(NCC)nc(N/N=C/c2ccc(O)c(O)c2)n1	–	inconclusive: 100 µM [inhibitor, single point]
CCCCCCCN1N=C(C)C(C(=O)c2ccccc2)C1=O (stereo unspecified)	–	inconclusive: 89.1 µM [inhibitor, single point]
Cc1ccc(C(=O)CSc2nc(C)cc(=O)[nH]2)cc1	inactive: -3.13%	–
CCC(Oc1ccccc1)C(=O)Nc1ccc(O)c(-c2nc3cc(C)ccc3o2)c1 (stereo unspecified)	inactive: 1.09%	–
CCOC(=O)C1=C(CN2CC(C)CC(C)C2)NC(=O)NC1c1ccc2c(c1)OCO2 (stereo unspecified)	–	inconclusive: 35.5 µM [inhibitor, partial curve]
COc1cc(OC)cc(C(=O)N2CCN(C3CCCCC3)CC2)c1	–	inconclusive: 89.1 µM [inhibitor, single point]
Cc1ccc2nc(NC(=O)CCCC(=O)O)sc2c1	inactive: -30.4%	–
CC(=O)/C(=N\Nc1ccccc1)Sc1nncn1C	–	inconclusive: 89.1 µM [inhibitor, single point]
CCc1nn(CC(=O)NC(C)CCc2ccccc2)c(=O)c2cc3cc(F)ccc3n12 (stereo unspecified)	–	inconclusive: 39.8 µM [inhibitor, single point]
CCc1nnc(NC(=O)c2nc(S(=O)(=O)Cc3cccc(C)c3)ncc2Cl)s1	–	inconclusive: 89.1 µM [inhibitor, single point] and inconclusive: 79.4 µM [inhibitor, partial curve]
Nc1ccc2nc(-c3cccnc3)[nH]c2c1	inactive: -2.97%	–
O=C1C(=Cc2cccn2-c2ccccc2)C(=O)c2ccccc21	–	inconclusive: 89.1 µM [inhibitor, single point]
NC(=O)CSc1oc(-c2ccco2)nc1S(=O)(=O)c1ccc(Br)cc1	–	inconclusive: 89.1 µM [inhibitor, single point]
CCCCn1cc(S(=O)(=O)c2ccc(C)c(C)c2)c(=O)c2cc(F)c(N3CCN(C)CC3)cc21	inactive: 0.126%	–
Cc1cccc(OCc2cc(=O)n3c(-c4ccccc4)csc3n2)c1C	inactive: -22.1%	–
COc1ccc(CCNS(=O)(=O)c2ccc([N+](=O)[O-])cc2)cc1OC	inactive: -2.77%	–
O=C(Nc1nnc(CCN2CCOCC2)s1)C1CCCCC1	–	inconclusive: 100 µM [inhibitor, single point]
CC1CCC2C(C1)c1sc(=O)[nH]c1SC2(C)C (stereo unspecified)	–	inconclusive: 44.7 µM [inhibitor, partial curve]
Cc1nc2ccc(S(=O)(=O)NC(C(=O)N3CCC(C)CC3)C(C)C)cc2s1 (stereo unspecified)	inactive: 5.87%	–

SMILES	activity change, negative = inhibition	Potency
CCOc1ccc(OCCCCNCCN)cc1	–	inconclusive: 89.1 µM [inhibitor, single point]
COc1ccc(N=C(N)SCc2ccccn2)cc1	–	inconclusive: 89.1 µM [inhibitor, single point]
COC(=O)Nc1ccc(S(=O)(=O)N2CCCc3cccc(O)c32)cc1	–	inconclusive: 79.4 µM [inhibitor, single point]
O=C(Nc1cc(Sc2ccccn2)cc([N+](=O)[O-])c1)c1ccc([N+](=O)[O-])cc1	–	inconclusive: 50.1 µM [inhibitor, partial curve]
COc1cc(-c2nc(CN3CCN(C(=O)c4ccco4)CC3)c(C)o2)ccc1F	–	inconclusive: 79.4 µM [inhibitor, single point]
O=C(NCCCn1ccnc1)c1ccncc1	–	active: 56.2 µM
COc1ccc(NC(=O)CSc2c3c(nc4cc(Cl)ccc24)CCCC3)cc1OC	inactive: -34.6%	–
COc1ccc(Cn2c(C(=O)O)c(CNCc3cccc(OC)c3)c3ccc(C)cc32)cc1	inactive: -35.5%	–
CC1=C/C(=N\OS(=O)(=O)c2ccccc2)C(C)=CC1=O	–	active: 35.5 µM
CCc1ccccc1NC(=O)C(CC)Sc1ncnc2c1sc1ccccc12 (stereo unspecified)	inactive: -1.5%	–
Cc1cccc(C)c1OCC(O)CN1CCC(CN2C(=O)c3cccc4cccc(c34)C2=O)CC1 (stereo unspecified)	–	inconclusive: 50.1 µM [inhibitor, partial curve]
CC(=O)Nc1ccc(NC(=O)CSC2=NS(=O)(=O)c3cc(F)ccc3N2)cc1	–	inconclusive: 89.1 µM [inhibitor, single point]
CN1c2ccccc2C2(C)CCCC3=Cc4cccc([N+](=O)[O-])c4OC312 (stereo unspecified)	–	inconclusive: 7.94 µM [inhibitor, full curve]
Cc1ccc(N=C2NC(=O)/C(=C/C=C/c3ccco3)S2)cc1	–	active: 15.8 µM
Nc1ccc(Oc2ccc(Br)cc2)cc1	–	active: 39.8 µM
COc1ccc2cc(C(=O)N/N=C/c3sc4ccccc4c3O)ccc2c1	–	inconclusive: 12.6 µM [inhibitor, partial curve]
COc1ccc(/C(=N/O)C(C)(C)NO)cc1	–	active: 50.1 µM
CC(OC(=O)C1CCN(S(=O)(=O)c2ccc(C(C)(C)C)cc2)CC1)C(=O)N1CCOCC1 (stereo unspecified)	inactive: 4.65%	–
COc1cc(/C=C2/C(=N)N3C(=NC2=O)SN=C3S(=O)(=O)C(C)C)ccc1OC(=O)c1ccco1	–	active: 56.2 µM
O=C(C1CCCN(Cc2cccs2)C1)N1CCCCCC1 (stereo unspecified)	–	inconclusive: 89.1 µM [inhibitor, single point]
Cc1ccc(-n2c(C)cc(/C=N/NC(=O)c3ccncc3)c2C)cc1	–	inconclusive: 79.4 µM [inhibitor, single point]
Cc1cc(C(=O)COC(=O)c2ccc(Cl)c(S(N)(=O)=O)c2)c(C)n1CC1CCCO1 (stereo unspecified)	–	inconclusive: 79.4 µM [inhibitor, single point]
O=C1CC[C@@H](CN(Cc2ccccn2)Cc2nc(Cc3cccc(C(F)(F)F)c3)no2)N1	–	inconclusive: 79.4 µM [inhibitor, single point]
